Results as given in publication PMC4336329 (PLoS ONE, 2015).
About 14,000 (4.5%) of roughly 310,000 compounds showed an effect of 50% or more. The effect is printed as a negative number. Some of the results follow.

target: human ether-à-go-go-related gene (hERG) potassium channel (human, UniProt Q12809); assay: primary screen, population patch clamp on CHO cells stably expressing hERG
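Also: peak tail current of the secondary pulse compared with the same well before compound.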

Sequence of human ether-à-go-go-related gene (hERG) potassium channel (Q12809 whole entry, looked up): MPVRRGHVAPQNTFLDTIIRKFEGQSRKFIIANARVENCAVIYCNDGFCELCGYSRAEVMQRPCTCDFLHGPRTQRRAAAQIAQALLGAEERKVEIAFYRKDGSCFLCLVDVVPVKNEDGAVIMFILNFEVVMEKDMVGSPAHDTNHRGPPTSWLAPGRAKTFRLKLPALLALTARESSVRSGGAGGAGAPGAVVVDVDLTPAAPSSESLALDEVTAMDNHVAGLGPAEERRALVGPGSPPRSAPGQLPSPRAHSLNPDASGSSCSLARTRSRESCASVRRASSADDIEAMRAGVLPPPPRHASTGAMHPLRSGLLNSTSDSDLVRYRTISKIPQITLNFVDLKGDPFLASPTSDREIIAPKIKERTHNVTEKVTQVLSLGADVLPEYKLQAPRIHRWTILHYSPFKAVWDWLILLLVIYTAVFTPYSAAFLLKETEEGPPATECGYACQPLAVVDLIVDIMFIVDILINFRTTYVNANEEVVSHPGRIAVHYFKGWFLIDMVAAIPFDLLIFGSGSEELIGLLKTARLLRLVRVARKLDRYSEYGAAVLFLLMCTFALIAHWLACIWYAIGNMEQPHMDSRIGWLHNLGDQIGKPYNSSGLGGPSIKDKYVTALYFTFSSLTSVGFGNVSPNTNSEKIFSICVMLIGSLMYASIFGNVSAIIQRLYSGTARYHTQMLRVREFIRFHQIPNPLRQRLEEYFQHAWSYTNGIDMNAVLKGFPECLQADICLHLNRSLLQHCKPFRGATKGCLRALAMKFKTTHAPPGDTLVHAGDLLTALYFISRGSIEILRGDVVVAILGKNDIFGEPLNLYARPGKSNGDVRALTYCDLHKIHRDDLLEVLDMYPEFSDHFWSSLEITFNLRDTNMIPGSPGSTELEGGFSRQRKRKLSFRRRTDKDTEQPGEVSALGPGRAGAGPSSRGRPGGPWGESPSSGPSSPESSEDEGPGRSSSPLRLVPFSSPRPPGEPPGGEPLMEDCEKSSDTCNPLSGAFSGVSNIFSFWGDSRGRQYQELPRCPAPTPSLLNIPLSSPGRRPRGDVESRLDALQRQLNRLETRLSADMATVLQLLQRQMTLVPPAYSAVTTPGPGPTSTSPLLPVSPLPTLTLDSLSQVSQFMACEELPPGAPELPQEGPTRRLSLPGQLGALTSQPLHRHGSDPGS

| Structure (SMILES) | hERG current change (%, negative = inhibition) at 10uM |
| --- | --- |
| CN(C)S(=O)(=O)c1cccc(NC(=O)COC(=O)c2cccc(S(=O)(=O)N3CCc4ccccc4C3)c2)c1 | 10.2% |
| COCCN(Cc1ccccc1)C(=O)c1cccc(S(=O)(=O)N2CCN(c3ccc(F)cc3)CC2)c1 | -64.6% |
| COc1ccccc1C(=O)C1CCCN(C(=O)c2cnn(C(C)C)c2)C1 (stereo not shown) | 5.63% |
| O=C(Nc1ccccc1O)c1cccc(S(=O)(=O)N2CCOCC2)c1 | 17.7% |
| S=C(NCc1cccnc1)Nc1cccc(Cl)c1 | -9.78% |
| Cc1cccc2c1N(C(=O)CN1C(=O)c3ccccc3C1=O)C(C)(C)c1ssc(=S)c1-2 | 14.5% |
| COc1ccc(-c2cc(=O)oc3c(C)c(OC(C)C(=O)Nc4ccc(CN5CCOCC5)cc4)ccc23)cc1 (stereo not shown) | -5.78% |
| COc1cccc(Nc2nc(-c3ccccc3O)nc3ccccc23)c1 | 20.5% |
| Cn1nnnc1SCCNC(=O)C1CCC(=O)N(CCc2ccccc2)C1 (stereo not shown) | 5.67% |
| COc1ccc(Cl)cc1C(=O)Nc1ccc(Br)c(C)n1 | 13.2% |
| Cc1ccc2c(cnn2C(=O)CCCC(=O)NCc2ccc(Cl)cc2)c1 | -31.8% |
| CCOC(=O)N1CCN(S(=O)(=O)c2ccc(Br)s2)CC1 | -9.22% |
| CC1(c2nnc(-c3ccc(F)cc3)o2)CC(c2ccncc2)=NO1 (stereo not shown) | -8.44% |
| CCOC(=O)CN1C(=O)COc2ccc(Cl)cc21 | 19.2% |
| CCOP(=O)(OCC)/C(=N/OC(=O)c1ccccc1C)C(N)=O | -1.22% |
| COc1cccc(-c2cc(C(F)(F)F)c(C#N)c(=O)[nH]2)c1 | 21% |
| CCOC(=O)/C(C(N)=NCCO)=C(/O)c1ccccc1 | 4.47% |
| COc1ccc(CN(Cc2cccn2C)S(=O)(=O)c2ccc(F)cc2)cc1 | -2.89% |
| O=C(O)C1C2C=CC3(CN(CC(O)COc4ccccc4)C(=O)C13)O2 (stereo not shown) | 17.4% |
| O=C(Nc1cc(S(=O)(=O)N2CCOCC2)ccc1N1CCOCC1)c1cc2c(s1)CCC2 | -5.63% |
| CCOc1ccc2[nH]c(=O)c(CN(CCO)Cc3nnnn3CCc3ccccc3)cc2c1 | -27.9% |
| CCOCC(=O)Nc1ccccc1C(=O)N1CCOCC1 | -0.166% |

| Structure (SMILES) | hERG current change (%, negative = inhibition) at 10uM |
| --- | --- |
| O=C(O)c1cccnc1Sc1ccccc1Cl | 17.1% |
| O=C(CSc1nc(-c2ccc(Cl)cc2)cs1)Nc1cccc([N+](=O)[O-])c1 | 14.5% |
| CCOC(=O)N1CCC(N2C(=O)c3ccc(C(=O)NCc4ccco4)cc3C2=O)CC1 | -9.63% |
| Cc1c(C(c2ccccc2O)c2c(C)n(C)n(-c3ccccc3)c2=O)c(=O)n(-c2ccccc2)n1C | -10.4% |
| Cc1ccc(S(=O)(=O)N2CCOCC2)cc1C(=O)Nc1ccc2c(c1)CCC2 | -10.6% |
| COC(=O)C(=O)C/C(=N/Nc1ncnc2ccccc12)c1ccc(Cl)cc1 | -9.31% |
| Fc1cccc(Nc2nc(Cl)nc(Cl)n2)c1 | 5.87% |
| Cc1onc(-c2ccccc2)c1C(=O)Nc1nc(-c2ccccc2)cs1 | -12.1% |
| Cn1cc(/C=C/C(=O)N2CCCC(C(=O)c3ccc(C(C)(C)C)cc3)C2)cn1 (stereo not shown) | -27.4% |
| CCOc1ccc(N2CC(C(=O)OCC(=O)NCc3ccccc3)CC2=O)cc1 (stereo not shown) | -38.5% |
| Cc1cc2cc(CN(Cc3cccs3)S(=O)(=O)c3ccc4c(c3)OCCO4)c(=O)[nH]c2cc1C | 8.96% |
| COc1ccc(C(=O)NC(=S)Nc2ccccc2N2CCCCC2)cc1[N+](=O)[O-] | 1.21% |
| N#Cc1c(N)nc(SCC(=O)C23CC4CC(CC(C4)C2)C3)c(C#N)c1-c1ccc(Cl)cc1 | -0.972% |
| O=C(Cc1ccc(-c2ccccc2)cc1)NCc1cccnc1 | -25.9% |
| O=Cc1cn(-c2ccccc2)nc1-c1cc2ccccc2oc1=O | 2.78% |
| Nc1cc(-c2cccc(Br)c2)nn1Cc1ccccc1 | -17.2% |
| CC(=O)Nc1ccc(OCC(O)CN2CCN(c3cc(Cl)ccc3C)CC2)cc1 (stereo not shown) | -30.8% |
| COC(=O)c1ccccc1NC(=O)c1nc2nc(C)cc(C)n2n1 | -1.89% |
| O=C(NCCN1CCOCC1)C1CCC(=O)N1C1CCCCC1 (stereo not shown) | 7.11% |
| Fc1ccc(-n2ncc3c(SCc4cccnc4)ncnc32)cc1 | -5.55% |
| CCn1ncc(-c2cc(C(=O)O)no2)c1C | 18.9% |
| Cc1ccc(Cl)cc1NC(=O)CNCC(c1ccccc1)N(C)C.O=C(O)C(=O)O (stereo not shown) | -30.3% |

| Structure (SMILES) | hERG current change (%, negative = inhibition) at 10uM |
| --- | --- |
| CCC1ON(c2ccccc2)C2c3nc4ccccc4n3CC12 (stereo not shown) | 11.1% |
| Cc1nn(CCC#N)c2nc(-c3ccccc3)cc(C(F)(F)F)c12 | 18.5% |
| C/C(=N\NC(=S)Nc1ccc(F)cc1)c1ccc2c(c1)OCCO2 | -34.7% |
| CCc1cc(=O)[nH]c(SCC(=O)Nc2ccc3c(c2)OCCO3)n1 | 7.62% |
| CCCCN(C)CCC(=O)Nc1ccc(F)c(F)c1.Cl | -6.43% |
| CN(Cc1ccno1)Cc1cn(C)nc1-c1ccc(Oc2ccccc2)cc1 | -13.4% |
| COc1ccc(C)cc1NC(=O)CN1C(=O)c2cccc3cccc1c23 | 18.6% |
| O=C(CSc1ccc([N+](=O)[O-])cc1)Nc1cccc(S(=O)(=O)Nc2ccccc2F)c1 | -74.4% |
| CC(=O)c1c(C)[nH]c(C(=O)N2CCC3(CC2)OCCO3)c1C | 17.3% |
| O=C(CSc1ccccn1)NC1CCCC1 | 22% |
| COc1ccc(Br)cc1CNc1ccc2[nH]c(=O)[nH]c2c1 | 15.3% |
| CC/C(CC(C)(C)c1ccccc1)=N\O | -0.0804% |
| CN(C)/C=N/c1ncc(C(=O)c2ccc(-c3ccccc3)cc2)s1 | -1.79% |
| Cc1scc(C(=O)NNC(=S)NC(C)c2ccccc2)c1C (stereo not shown) | 14.8% |
| O=c1nc(/C=C/c2ccccc2C(F)(F)F)cc(C(F)(F)F)[nH]1 | 20.4% |
| Cc1c2cnn(-c3ccccc3)c(=O)c2c(C)n1CCCC(=O)N1CCN(C2CCCCC2)CC1 | -36.7% |
| Cc1c(N=Cc2c(O)n(Cc3ccccc3)c(=O)[nH]c2=O)c(=O)n(-c2ccccc2)n1C | -5.81% |
| Cn1c(=S)[nH]c2sc3c(c2c1=O)CCC(C(C)(C)C)C3 (stereo not shown) | 23.6% |
| O=C1Cc2cc(S(=O)(=O)N3CCCCC3)ccc2N1 | 7.81% |
| CCCCSCCCNC(=O)Nc1cccc(OC)c1 | -3.84% |
| Cc1ccc(N(CC(=O)N2CCc3ccccc3C2)S(C)(=O)=O)cc1 | -1.59% |
| Cc1ccc(C(=O)OC(C)C(=O)Nc2ccc(Cl)cn2)s1 (stereo not shown) | -19.9% |

| Structure (SMILES) | hERG current change (%, negative = inhibition) at 10uM |
| --- | --- |
| COc1ccc(NC(=O)c2c(N)no[n+]2[O-])c(OC)c1 | 20.9% |
| CC1CCCCC1NC(=O)COC(=O)c1ccc(S(=O)(=O)NCc2ccco2)cc1 (stereo not shown) | -9.62% |
| CC(=O)c1ccccc1OC(=O)c1ccc(-c2ccccc2)cc1 | 10.7% |
| COCCNC(=O)COC(=O)/C=C/c1cnc2ccccc2n1 | 6.11% |
| CNC(=S)Nc1ccc(C)c(NC(=S)NC)c1 | -8.07% |
| O=c1cc(CSc2nnc(Nc3ccccc3)s2)nc2sccn12 | -27.6% |
| CC(=O)NCCc1nc2cc(NC(=O)c3ccccc3Cl)ccc2n1C | 6.94% |
| Cn1cc(S(=O)(=O)CC(=O)N2CCc3ccccc32)c2ccccc21 | -7.93% |
| Cc1csc(NC(=O)CSc2nnc(CCNC(=O)c3ccc(Cl)c(Cl)c3)n2C)n1 | -3.32% |
| Cc1cc(NC(=O)C2CCCCC2)ccc1NC(=O)c1ccccc1Cl | 4.67% |
| COc1ccc2[nH]cc(CCn3ccc(O)c(C/C=C/c4ccccc4)c3=O)c2c1 | 8.05% |
| COc1ccc(C(=O)CC(=O)C(=O)Nc2ccc(Cl)cc2)cc1 | 7.74% |
| CC(C)=CCCC1=CCC(/C(C)=N/NC(N)=O)CC1 (stereo not shown) | -53.7% |
| COc1cc(C(=O)Nc2ccc3c(c2)OCO3)ccc1OCc1c(C)noc1C | 41.9% |
| O=C(O)C1CC=CCC1C(=O)N1CCN(c2nc(-c3ccccc3)c3ccccc3n2)CC1 (stereo not shown) | -16.8% |
| Cc1cccc(N(Cc2ccccc2)C(=O)c2ccccc2F)c1 | -4.57% |
| Cc1ccc(CN(Cc2ccco2)C(=O)c2ccco2)cc1 | -35.9% |
| Cc1ccc(NC(=O)c2cccc(NC3=NC4CS(=O)(=O)CC4S3)c2)cc1 (stereo not shown) | 12.5% |
| CCOc1ccc(CSC(=N)N)cc1Cl.Cl | -15.2% |
| S=C(NCc1ccco1)Nc1cc(-c2ccccc2)[nH]n1 | -20.9% |
| COc1ccc(NS(=O)(=O)c2cc(C(=O)OC(C)C(=O)N3CCOCC3)ccc2Cl)cc1 (stereo not shown) | -19.6% |
| O=C(N/N=C/C(Br)=C/c1ccccc1)NC1CCCCC1 | 10.7% |
